Results: PMC4336329 (PLoS ONE, 2015)
Among all 310,000 compounds or so, about 2,200 (0.71%) showed an effect of 50% or more. Effects have a minus sign here. Some of the results follow.

molecular target: human ether-à-go-go-related gene (hERG) potassium channel (human, UniProt Q12809); test: primary screen, population patch clamp on CHO cells stably expressing hERG
Sequence (Q12809 whole entry, looked up): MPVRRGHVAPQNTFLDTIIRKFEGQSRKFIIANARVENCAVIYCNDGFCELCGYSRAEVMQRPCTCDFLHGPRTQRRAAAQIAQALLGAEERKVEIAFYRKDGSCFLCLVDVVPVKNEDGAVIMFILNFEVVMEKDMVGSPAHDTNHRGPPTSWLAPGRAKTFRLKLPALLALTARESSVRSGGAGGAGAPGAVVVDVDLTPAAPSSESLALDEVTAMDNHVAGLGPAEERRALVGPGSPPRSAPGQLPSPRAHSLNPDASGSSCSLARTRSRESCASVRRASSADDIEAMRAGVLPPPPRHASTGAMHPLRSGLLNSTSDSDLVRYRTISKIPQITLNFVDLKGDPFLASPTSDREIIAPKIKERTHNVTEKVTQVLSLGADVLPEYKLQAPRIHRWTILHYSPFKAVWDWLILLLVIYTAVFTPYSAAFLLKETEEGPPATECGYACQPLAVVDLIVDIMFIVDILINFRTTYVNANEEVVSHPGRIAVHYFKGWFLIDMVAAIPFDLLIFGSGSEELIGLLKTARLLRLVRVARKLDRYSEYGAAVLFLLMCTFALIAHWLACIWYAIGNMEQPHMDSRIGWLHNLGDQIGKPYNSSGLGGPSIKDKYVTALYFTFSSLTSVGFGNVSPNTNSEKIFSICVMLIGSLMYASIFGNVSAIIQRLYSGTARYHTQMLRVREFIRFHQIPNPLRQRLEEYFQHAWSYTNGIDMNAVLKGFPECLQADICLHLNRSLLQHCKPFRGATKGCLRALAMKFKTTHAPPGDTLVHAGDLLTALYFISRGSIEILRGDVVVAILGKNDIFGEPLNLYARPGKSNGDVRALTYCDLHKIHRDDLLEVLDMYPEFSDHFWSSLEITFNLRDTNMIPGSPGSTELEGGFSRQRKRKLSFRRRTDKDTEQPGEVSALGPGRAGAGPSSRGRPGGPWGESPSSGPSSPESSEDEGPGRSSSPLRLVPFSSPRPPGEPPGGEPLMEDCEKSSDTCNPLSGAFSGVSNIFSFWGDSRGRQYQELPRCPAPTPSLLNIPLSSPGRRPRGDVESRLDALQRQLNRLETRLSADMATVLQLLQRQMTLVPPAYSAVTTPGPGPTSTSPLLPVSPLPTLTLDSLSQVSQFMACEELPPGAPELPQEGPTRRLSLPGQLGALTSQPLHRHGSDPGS

SMILES	hERG current change (%, negative = inhibition) at 1uM [%]
CC(=O)Nc1ccc(S(=O)(=O)NCC(=O)OCC(=O)NCc2ccco2)cc1	-19.8
CCOC(=O)c1c(NC(=O)c2cccs2)sc(C)c1C	4.47
Cc1ccc(-c2ccc(C(=O)Nc3cccc(F)c3)o2)c2ccccc12	15.1
CCOC(=O)CNC(=O)CSc1nnc(-c2ccccc2OC)n1CC	8.63
Cc1ccc(NC(=O)CC2C(=O)OCC3CCCCN32)cc1Cl (stereo not shown)	12.7
O=C1C2C3C=CC(C4CC34)C2C(=O)N1/N=C/c1ccc(-c2ccc(Cl)cc2[N+](=O)[O-])o1 (stereo not shown)	6.75
COc1cccc(N2C(=NC(=O)CCc3ccccc3)SC3CS(=O)(=O)CC32)c1 (stereo not shown)	7.19
CN1CCN(C(=O)CN(C)S(=O)(=O)c2ccc(F)cc2)CC1	16.7
O=C(Nc1ccccc1Cl)C1CC(=O)N(Cc2ccco2)C1 (stereo not shown)	3.25
O=C(Cc1cccc2ccccc12)NCC(=O)N1CCN(Cc2cccc(C(F)(F)F)c2)CC1	9.24
CC(C)CCn1c(=O)c2ccccc2c2ccccc2c1=O	10
COc1ccc(NC(=O)C(c2ccc(OC)cc2)N(C)C(=O)c2cnccn2)cc1 (stereo not shown)	-1.14
O=C(COC(=O)C1CC1)Nc1ncc(C(F)(F)F)cc1Cl	21.5
Cc1ccc(S(=O)(=O)Oc2ccc(C)cc2/C=N/N=C2\NC(=O)C(C)S2)cc1 (stereo not shown)	5.36
Cc1ccc(C)c(NC(=O)CN2C(=O)COc3ccc(S(=O)(=O)N4CCCC4)cc32)c1	9.2
O=C(COc1ccc(F)c(Cl)c1)N1CCN(c2ccccn2)CC1	-13.8
COCCn1c(N)c(NCc2ccccc2)c(=O)n(CC(=O)Nc2cc(C)ccc2C)c1=O	-3.57
Cc1ccc(C(NC(=O)CN2C(=O)NC3(CCCC3)C2=O)c2ccccc2)cc1 (stereo not shown)	9.26
COc1ccc(CNC(=S)Nc2ccccc2)cc1Cl	7.32
CCCc1cc(=O)oc2c(C)c(OC(C)C(=O)NCc3ccccn3)ccc12 (stereo not shown)	-2.56
COc1ccc(S(=O)(=O)n2cnc3ccccc32)cc1.Cl	12.5
CCC1(OC(=O)CN)C(=O)OCc2c1cc1n(c2=O)Cc2cc3ccccc3nc2-1.Cl (stereo not shown)	15.9

SMILES	hERG current change (%, negative = inhibition) at 1uM [%]
N#CC(C#N)=C1NC2(CCCCC2)Cc2ccccc21	10.9
NC(=S)N/N=C/c1ccc(OC(=O)c2cccnc2)cc1	14.4
Cc1ncc(CN2CCCC(C(=O)Nc3ccc(-c4cccc(F)c4)cc3)C2)s1 (stereo not shown)	6.04
COc1ccc(C(=O)NC2CCN(C(=S)Nc3cc(C)ccc3C)CC2)cc1	7.77
O=[N+]([O-])c1cccc(S(=O)(=O)Nc2ccc(S(=O)(=O)NCC3CCCO3)cc2)c1 (stereo not shown)	10.5
O=[N+]([O-])c1ccc(-c2cn(-c3ccc(Cl)cc3)c(=S)[nH]2)cc1	9.78
CCOC(=O)CN1CCC(c2cc(-c3ccc(Cl)cc3)n[nH]2)CC1	22.3
CCN(CC)Cc1c(NC(=O)c2ccccc2)sc(C)c1C	-7.95
CCC(Oc1ccccc1F)C(=O)Nc1ccc2c(c1)n(C)c(=O)n2C (stereo not shown)	10.6
COc1cc(/C(C#N)=C/c2cccc3ccccc23)c([N+](=O)[O-])cc1OC	14.3
c1ccc(-c2nn3c(Cn4nnc5ccccc54)nnc3s2)nc1	0.716
O=P(Cc1cc[n+]([O-])cc1)(c1ccccc1)c1ccccc1	15.8
Cc1nn(C(C)(C)C)c(OC(=O)CC(C)C)c1S(=O)(=O)c1ccccc1	10.4
CC(C)Nc1nc(NC(N)=S)nc(NC(C)C)n1	8.9
Cc1ccc2c(CSc3nncs3)cc(=O)oc2c1	3.04
Cc1nnc(SCC(=O)NCC2COc3ccccc3O2)s1 (stereo not shown)	16.1
CCSc1ncnc2c(C#N)c3n(c12)CCCCC3	4.78
CNC(=S)Nc1cccc(C(=O)OC)c1	11.5
CC(C)(C)c1cc(NC(=O)c2cccnc2)no1	-2.17
C=CCNC(=S)N1CCN(c2ccc([N+](=O)[O-])cc2)CC1	-52.1
CCCc1nc2sc3c(c2c(=O)n1NC(=O)c1ccco1)CC(C)(C)OC3	9.77
